{"source": "PubChem BioAssay AID504332", "about": "(National Center for Advancing Translational Sciences (NCATS), 2011)", "note": "The campaign covered roughly 350,000 compounds. About 31,000 (8.9%) were called active. This list was built around the results that the source calls inconclusive (neither active nor inactive); the mix of calls is not that of the screen. The call rests on the fitted dose curve; in most records, active means well fitted inhibition curve with a large enough effect; inconclusive means small, poorly fitted or top-dose-only effect; inactive means no such curve, though single readings can be large or run the other way. Where the call is inconclusive, the potency comes from a doubtful curve fit. On the % scale 0 is the no-effect control and ±100 the full control effect; potency means the concentration at half of the fitted maximal effect; tags describe the fitted curve by direction and shape."}
{"molecular_target": "Histone-lysine N-methyltransferase EHMT2 (Homo sapiens) (UniProt Q96KQ7)", "sequence (Q96KQ7 whole entry, looked up)": "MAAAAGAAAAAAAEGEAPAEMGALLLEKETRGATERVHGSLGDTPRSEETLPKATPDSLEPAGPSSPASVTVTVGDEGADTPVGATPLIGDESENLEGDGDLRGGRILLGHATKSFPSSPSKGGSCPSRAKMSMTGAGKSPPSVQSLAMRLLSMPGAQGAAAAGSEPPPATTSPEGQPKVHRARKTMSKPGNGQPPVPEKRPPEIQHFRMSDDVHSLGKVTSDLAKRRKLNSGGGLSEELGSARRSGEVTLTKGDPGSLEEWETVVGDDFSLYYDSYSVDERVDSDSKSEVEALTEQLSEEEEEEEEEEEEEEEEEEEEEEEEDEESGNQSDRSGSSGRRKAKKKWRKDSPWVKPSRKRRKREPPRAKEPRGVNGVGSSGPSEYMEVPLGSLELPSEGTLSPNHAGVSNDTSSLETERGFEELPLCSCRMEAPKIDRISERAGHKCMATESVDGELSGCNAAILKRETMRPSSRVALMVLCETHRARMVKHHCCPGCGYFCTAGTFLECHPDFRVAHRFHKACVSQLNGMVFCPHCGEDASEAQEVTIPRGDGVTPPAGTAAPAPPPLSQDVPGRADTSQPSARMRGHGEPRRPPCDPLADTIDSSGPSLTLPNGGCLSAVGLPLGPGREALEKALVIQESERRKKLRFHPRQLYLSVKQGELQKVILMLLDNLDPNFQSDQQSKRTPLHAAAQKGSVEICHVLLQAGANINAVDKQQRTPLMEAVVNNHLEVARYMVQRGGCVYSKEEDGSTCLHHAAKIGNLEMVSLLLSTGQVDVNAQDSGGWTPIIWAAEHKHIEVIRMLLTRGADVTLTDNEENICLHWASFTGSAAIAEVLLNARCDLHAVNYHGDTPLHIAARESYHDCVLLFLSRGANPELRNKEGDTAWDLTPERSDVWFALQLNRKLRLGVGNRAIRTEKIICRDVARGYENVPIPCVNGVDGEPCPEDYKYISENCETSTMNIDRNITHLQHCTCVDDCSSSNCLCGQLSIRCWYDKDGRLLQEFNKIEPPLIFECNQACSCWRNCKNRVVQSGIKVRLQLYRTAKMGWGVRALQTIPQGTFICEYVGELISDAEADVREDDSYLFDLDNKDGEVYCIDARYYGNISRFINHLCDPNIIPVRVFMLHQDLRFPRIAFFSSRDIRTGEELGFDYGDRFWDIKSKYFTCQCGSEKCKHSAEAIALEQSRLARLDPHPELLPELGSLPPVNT", "test": "qHTS Assay for Inhibitors of Histone Lysine Methyltransferase G9a; further: nearly all actives have a fitted effect of over 75% in size", "settings": "G9a H3K9 monomethylation, AlphaScreen, 2 h; activity, negative = inhibition: at 59 µM (top of the series) unless noted", "method_in_brief": "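Chemiluminescent proximity detection of H3K9 monomethylation, read after 10 min bead incubation in the dark. Reaction: 20 nM G9a, 500 nM biotin-H3K9 peptide, 20 uM SAM cofactor, 2 h, room temperature, following 15 min enzyme-compound preincubation.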"}
{"smiles": "O=C(N/N=C/c1ccccn1)c1ccc(N/N=C/c2ccccn2)cc1", "Potency": "inconclusive: 7.94 µM [inhibitor, full curve, poor fit]"}
{"smiles": "O=C(Nc1ccccc1)c1cc([N+](=O)[O-])ccc1NC1CCCCC1", "Potency": "inconclusive: 70.8 µM [inhibitor, single point]"}
{"smiles": "CCOC(=O)c1ccc[n+](CC(=O)Nc2cc(C(F)(F)F)ccc2Cl)c1", "Potency": "inconclusive: 44.7 µM [inhibitor, partial curve, poor fit]"}
{"smiles": "CC(C(=O)Nc1ccc2c(c1)OCCO2)N1CCN(C(=O)c2ccco2)CC1", "note": "(stereo not drawn)", "Potency": "inconclusive: 3.55 µM [inhibitor, partial curve, poor fit]"}
{"smiles": "Cc1nnnn1/C(=C\\c1ccccc1)C(=O)OCC(=O)Nc1ccc(Cl)cc1F", "Potency": "active: 50.1 µM"}
{"smiles": "O=C(c1cc2cc(Cl)ccc2[nH]1)N1CCN(C(=O)c2ccco2)CC1", "Potency": "inconclusive: 79.4 µM [inhibitor, single point]"}
{"smiles": "Cc1cc(C)c(S(=O)(=O)NCc2cccnc2)c(C)c1", "Potency": "inconclusive: 89.1 µM [inhibitor, single point]"}
{"smiles": "Oc1ccc(-c2onc3ccc(Cl)cc23)cc1", "Potency": "inconclusive: 89.1 µM [inhibitor, single point]"}
{"smiles": "O=C(O)c1cccc(NCc2ccncc2)c1", "Potency": "inconclusive: 89.1 µM [inhibitor, single point]"}
{"smiles": "CC(C)OCCCn1c(=O)c2ccccc2n2c(-c3ccc(F)cc3)nnc12", "Potency": "active: 28.2 µM"}
{"smiles": "Cc1cc(Cl)nc(-n2nc(C)cc2C)n1", "Potency": "inconclusive: 89.1 µM [inhibitor, single point]"}
{"smiles": "CCOc1cc2sc(N3CCC(C(=O)Nc4ccc(C)cc4C)CC3)nc2cc1Br", "activity, negative = inhibition": "inactive: 3.51%"}
{"smiles": "O=C(CN1CCOCC1)N/N=C/c1ccco1", "activity, negative = inhibition": "inactive: -38.1% [at 102 µM]"}
{"smiles": "CC(=O)c1cccc(NC(=O)N2CCC(NC(=O)c3ccco3)CC2)c1", "activity, negative = inhibition": "inactive: 0.384% [at 102 µM]"}
{"smiles": "CCN1CCN(c2ncc3c(n2)CCN(Cc2cc(F)cc(F)c2)C3)CC1", "Potency": "inconclusive: 28.2 µM [inhibitor, single point]"}
{"smiles": "CC(=O)c1ccc(N2CCN(C(=O)c3ccc(NC4=NC5CS(=O)(=O)CC5S4)cc3)CC2)cc1", "note": "(stereo not drawn)", "activity, negative = inhibition": "inactive: 3.38% [at 102 µM]"}
{"smiles": "COc1ccc(NC(=O)C(=O)NCCc2csc(-c3ccc(Cl)cc3)n2)cc1OC", "activity, negative = inhibition": "inactive: 8.42%"}
{"smiles": "COc1ccc(NC(=O)COC(=O)CCCc2c[nH]c3ccccc23)cc1OC", "Potency": "inconclusive: 70.8 µM [inhibitor, single point]"}
{"smiles": "CCC(C)[C@H](NC(=O)N1CCN(C)CC1)C(=O)OC", "note": "(stereo partly drawn)", "activity, negative = inhibition": "inactive: 20.8% [at 102 µM]"}
{"smiles": "Cc1cccc(N2CCN(Cc3ccoc3)CC2)c1C", "Potency": "active: 10 µM"}
{"smiles": "Cc1onc(-c2ccccc2Cl)c1C(=O)Nc1ccc(-n2nncc2-c2ccco2)cc1", "Potency": "active: 39.8 µM"}
{"smiles": "O=C(O)Cn1cc(/C=N/Nc2ccc([N+](=O)[O-])cn2)c2ccccc21", "Potency": "active: 44.7 µM"}
{"smiles": "CCOC(=O)c1cnc2[nH]c3ccccc3n2c1=O", "Potency": "inconclusive: 28.2 µM [inhibitor, partial curve, poor fit]"}
{"smiles": "O=S(=O)(c1ccc(Cl)cc1)N1CCN(Cc2ccc(O)c3ncccc23)CC1", "activity, negative = inhibition": "inactive: -37.5% [at 102 µM]"}
{"smiles": "CC(C)c1ccc(S(=O)(=O)N2CCN(C(=O)Cc3ccsc3)CC2)cc1", "Potency": "inconclusive: 89.1 µM [inhibitor, partial curve, poor fit]"}
{"smiles": "CC(C)c1ccc(/C=C/C(=O)Nc2ccc(CN3CCOCC3)cc2)cc1", "Potency": "inconclusive: 50.1 µM [inhibitor, partial curve, poor fit]"}
{"smiles": "N/C(=N\\OC(=O)COc1ccc(Br)cc1Cl)c1ccccn1", "Potency": "inconclusive: 25.1 µM [inhibitor, single point]"}
{"smiles": "COC(=O)c1ccc(NC(=O)CSc2nc(=O)[nH]c3c2CCCC3)cc1", "activity, negative = inhibition": "inactive: -5.09%"}
{"smiles": "c1ccc(-c2ccccc2OCCN2CCCCC2)cc1", "Potency": "inconclusive: 3.55 µM [inhibitor, partial curve, poor fit]"}
{"smiles": "CC(=O)NC(=S)NNC(=O)COc1ccc(Br)cc1", "Potency": "active: 1.78 µM"}
{"smiles": "CNC(=O)C1CCC(Cn2c(=O)c3sccc3n(CC(=O)NCc3ccccc3)c2=O)CC1", "note": "(stereo not drawn)", "activity, negative = inhibition": "inactive: 12.9%"}
{"smiles": "COc1ccccc1CNc1nc(-c2ccco2)nn1S(=O)(=O)c1ccc2ccccc2c1", "Potency": "inconclusive: 20 µM [inhibitor, single point]"}
{"smiles": "O=C(/C=C/c1ccccc1)N1CCN(CCN2C(=O)c3cccc4cccc(c34)C2=O)CC1", "Potency": "inconclusive: 20 µM [inhibitor, partial curve, poor fit]"}
{"smiles": "Cc1cccc(-c2noc(-c3ccccc3OCC(=O)Nc3ccc([N+](=O)[O-])cc3)n2)c1", "Potency": "inconclusive: 14.1 µM [inhibitor, partial curve, poor fit]"}
{"smiles": "CCNC(=S)N/N=C/c1cccc(/C=N/NC(=S)NCC)c1", "Potency": "inconclusive: 31.6 µM [inhibitor, full curve, poor fit]"}
{"smiles": "CCOc1ccc(CCNC(=O)COC(=O)/C=C/c2ccc(OC)c(OC)c2)cc1OCC", "activity, negative = inhibition": "inactive: -10.8% [at 102 µM]"}
{"smiles": "COc1cccc(-c2cn3nc4c(nc3n2)CCCC4)c1", "activity, negative = inhibition": "inactive: 17.8%"}
{"smiles": "Cn1cnnc1SCC(C)(C)NS(=O)(=O)c1ccc(Cl)cc1", "Potency": "inconclusive: 7.94 µM [inhibitor, partial curve, poor fit]"}
{"smiles": "COc1cccc(CNC(=O)CSc2nnc3c(n2)[nH]c2ccc(C)cc23)c1", "activity, negative = inhibition": "inactive: 7.18%"}
{"smiles": "CCN1CCCC(NC(=O)c2cc([N+](=O)[O-])ccc2OC)C1", "note": "(stereo not drawn)", "Potency": "inconclusive: 39.8 µM [inhibitor, partial curve, poor fit]"}
{"smiles": "COc1ccc(N2CCN(CCCNC(=O)CN3CCN(Cc4ccccc4C)C3=O)CC2)cc1", "activity, negative = inhibition": "inconclusive: -94.2% [inhibitor]"}
{"smiles": "O=C(Nc1cccc(-c2nnn(CC(=O)N3CCc4ccccc4C3)n2)c1)C1CCC1", "Potency": "inconclusive: 28.2 µM [inhibitor, single point]"}
{"smiles": "CN1CCc2c(sc(NC(=O)Cc3ccccc3)c2C(N)=O)C1", "activity, negative = inhibition": "inactive: -8.07% [at 102 µM]"}
{"smiles": "CC(=O)Nc1ccc(N(C(=O)CNC(=O)c2cccs2)C(C(=O)NCC2CCCO2)c2ccccc2)cc1", "note": "(stereo not drawn)", "activity, negative = inhibition": "inactive: 5.34% [at 102 µM]"}
{"smiles": "CCN1CCc2nc3sc(C(=O)Nc4cccc(Cl)c4C)c(N)c3cc2C1", "Potency": "inconclusive: 25.1 µM [inhibitor, single point]"}
{"smiles": "CCOC(=O)n1c(=O)n(C)c2ccc(Br)cc21", "Potency": "inconclusive: 1 µM [inhibitor, full curve, poor fit]"}
{"smiles": "Nc1cc(CN2C(=O)c3ccccc3C2=O)cc(Cl)c1O", "activity, negative = inhibition": "inconclusive: -84.9% [inhibitor]"}
{"smiles": "Cc1ccc(NC(=O)c2cc(S(=O)(=O)N(C)C)ccc2N2CCCC2)cc1S(=O)(=O)N(C)C", "Potency": "inconclusive: 50.1 µM [inhibitor, partial curve, poor fit]"}
{"smiles": "Cc1cc(C)c(S(=O)(=O)NCC(c2ccc3c(c2)OCO3)N2CCOCC2)c(C)c1", "note": "(stereo not drawn)", "Potency": "inconclusive: 56.2 µM [inhibitor, partial curve]"}
{"smiles": "O=C(NCCOc1nc(N2CCCCC2)nc(N2CCOCC2)n1)Nc1ccccc1", "activity, negative = inhibition": "inactive: 24.6%"}
{"smiles": "CN(C)/C(Cn1cncn1)=C1/N=C(c2ccccc2)OC1=O", "Potency": "inconclusive: 44.7 µM [inhibitor, partial curve, poor fit]"}
{"smiles": "CN(C)S(=O)(=O)c1cccc(NC(=O)COC(=O)/C=C/c2ccc([N+](=O)[O-])cc2)c1", "Potency": "inconclusive: 35.5 µM [inhibitor, full curve]"}
{"smiles": "COc1cccc(N2CCN(c3ncnc4c3cnn4-c3ccc(C)cc3C)CC2)c1", "Potency": "inconclusive: 89.1 µM [inhibitor, single point]"}
{"smiles": "COC(=O)c1ccccc1NC(=O)c1c(C)oc2ncn(C)c(=O)c12", "activity, negative = inhibition": "inactive: -5.99%"}
{"smiles": "N#CC1(NC(=O)COc2cccnc2[N+](=O)[O-])CCCCC1", "activity, negative = inhibition": "inactive: 22.5% [at 12.7 µM]"}
{"smiles": "O=C(O)CC/C(=N\\Nc1ccc(S(=O)(=O)N2CCCC2)cc1[N+](=O)[O-])c1cccs1", "Potency": "active: 14.1 µM"}
{"smiles": "COc1cc(Cn2nnc3ccccc32)cc(Br)c1O", "Potency": "inconclusive: 89.1 µM [inhibitor, single point]"}
{"smiles": "CCOc1ccccc1-n1c(SCC(=O)NC2CCCC2)nnc1-c1ccoc1C", "Potency": "inconclusive: 31.6 µM [inhibitor, single point]"}
{"smiles": "O=C1/C(=C/c2cccc(Br)c2)SC(=S)N1/N=C/c1cc([N+](=O)[O-])ccc1O", "Potency": "active: 39.8 µM"}
{"smiles": "C=CCn1c(SCC(=O)NCC2CCCO2)nc2scc(-c3ccco3)c2c1=O", "note": "(stereo not drawn)", "Potency": "inconclusive: 3.55 µM [inhibitor, single point]"}
{"smiles": "CC(C)CN1C(=O)/C(=C(/C#N)C(=O)NC2CCCCC2)c2ccccc21", "Potency": "inconclusive: 39.8 µM [inhibitor, partial curve, poor fit]"}
{"smiles": "O=C1ON=C(c2ccc(Cl)c([N+](=O)[O-])c2)/C1=C/c1cccc([N+](=O)[O-])c1O", "Potency": "inconclusive: 0.562 µM [inhibitor, full curve, poor fit]"}
{"smiles": "Cc1cccc(OCC(=O)NCC(=O)N=Nc2c(O)[nH]c3ccc([N+](=O)[O-])cc23)c1", "Potency": "inconclusive: 89.1 µM [inhibitor, single point]"}
{"smiles": "Cc1cc2c(cc1Cl)N(C(=O)Nc1ccc(Oc3cccnc3C)nc1)CC2", "Potency": "inconclusive: 26.7 µM [inhibitor, single point]"}
{"smiles": "Cc1ccc(S(=O)(=O)NCCC(=O)N2CC(C)OC(C)C2)cc1C", "note": "(stereo not drawn)", "Potency": "inconclusive: 0.158 µM [inhibitor, partial curve, poor fit]"}
{"smiles": "C=CCOC(=O)C1=C[C@@H](c2ccc(Br)cc2)C[C@@H](OCc2ccc(CO)cc2)O1", "activity, negative = inhibition": "inconclusive: -101% [inhibitor]"}
{"smiles": "CC(=O)Nc1ccc(SCC(=O)c2cc(C)n(C)c2C)cc1", "Potency": "inconclusive: 89.1 µM [inhibitor, single point]"}
{"smiles": "O=C(O)c1cccc(N2CCCC2=O)c1", "Potency": "active: 50.1 µM"}
